Test results published in PubChem BioAssay AID504832 (National Center for Advancing Translational Sciences (NCATS), 2011).
Among all 310,000 compounds or so, about 18,000 (5.8%) were called active. This list was built around the results that the source calls inconclusive (neither active nor inactive); the mix of calls is not that of the screen. Calls follow the shape of the dose curve; as a rule, active = well fitted inhibition curve with a large enough effect; inconclusive = small, poorly fitted or top-dose-only effect, or another doubt; inactive = no such curve, though single readings can be large or run the other way. No potency is given beside an inconclusive call; the fits are too rough.

test: Primary qHTS for delayed death inhibitors of the malarial parasite plastid, 48 hour incubation; conditions: P. falciparum luciferase growth in erythrocytes; series mostly up to 28.7 µM; activity change, negative = inhibition: at the top concentration
Outline: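 First compound was added to culture medium, then infected red cells at 0.1% parasitemia and 2% hematocrit (final). After incubation at 37 C under 5% CO2, luciferase detection reagent was dispensed and light output recorded.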
% is scaled to controls: 0 for no effect and ±100 for the full control effect; potency is read from the fitted curve at half-maximal effect; tags tell the direction and shape of the fitted curve.

Compound | activity change, negative = inhibition | Potency
CCN(CC(=O)Nc1c(F)cccc1F)C(=O)C1Cc2ccccc2CN1S(=O)(=O)CC (stereo not given) | inactive: 0.18% | –
CC(C)(C)OC(=O)[C@H](Cc1ccccc1)NC(=O)c1nc[nH]c1C(=O)NC1CCNCC1 | – | inconclusive [inhibitor, partial curve, poor fit]
COc1cc(NC(=O)CN2C(=O)NC(C)(c3ccccc3)C2=O)c(C)cc1[N+](=O)[O-] (stereo not given) | – | inconclusive [inhibitor, single point]
Cc1ccc(Nc2nc(N)nc(CN3CCN(C(=O)c4ccco4)CC3)n2)cc1Cl | – | inconclusive [inhibitor, single point]
C=CCN1C(=O)c2ccc(C(=O)OCC(=O)N3CCN(c4ccccc4)CC3)cc2C1=O | inactive: 9% | –
O=C(OCCc1cc2ccccc2c(=O)o1)c1cccc(Br)c1 | – | inconclusive [inhibitor, partial curve, poor fit]
O=C(CCN1CCN(c2ccccc2F)CC1)Nc1ccccc1Cl | – | inconclusive [inhibitor, single point]
CCOC(=O)C1CCN(Cc2cnc(Oc3ccc(OC)cc3)s2)CC1 | inactive: 30.3% | –
O=c1[nH]c(Cc2ccccn2)nc2scc(-c3ccccc3Cl)c12 | – | inconclusive [inhibitor, partial curve]
Cc1nc(C(=O)Nc2ccccc2)sc1C1(C)CC(c2cccc([N+](=O)[O-])c2)=NO1 (stereo not given) | – | inconclusive [inhibitor, single point]
CCN(CC)S(=O)(=O)c1ccc(N2CCCC2)c(NC(=O)c2ccc(N3CCCC3=O)cc2)c1 | – | active: 13.1 µM
Cc1c(NC(=O)c2ccc(N3CCCC3)c([N+](=O)[O-])c2)cccc1-c1nc2ccccc2s1 | – | active: 10.4 µM
CCc1ccc(CNC(=O)C2CCN(S(=O)(=O)N3CC(C)CC(C)C3)CC2)cc1 (stereo not given) | inactive: -17.3% | –
Cc1cc(NC(=O)c2cc(S(=O)(=O)N3CCCCC3)ccc2C)n(-c2ccccn2)n1 | inactive: 5.45% | –
COc1ccc(NC(=O)COC(=O)c2ccc(N3CCCC3=O)cc2)cc1 | inactive: -8.33% | –
O=C(c1ccco1)N1CCN(C(=O)C2CC(=O)N(c3ccc(Cl)cc3)C2)CC1 (stereo not given) | inactive: -7.74% | –
CCN(CC)CCn1c2ccccc2c2nc3ccc([N+](=O)[O-])cc3cc21 | – | inconclusive [inhibitor, full curve]
CCOc1ccc(NC(=O)C(C)Sc2nnnn2C)cc1 (stereo not given) | inactive: 21.4% | –
O=S(=O)(c1ccc2[nH]c3c(c2c1)CCCC3)N1CCCCC1 | – | inconclusive [inhibitor, single point]
O=C1CCN(CCc2ccccc2)CCN1[C@H](CSc1ccccc1)Cc1ccccc1 | – | inconclusive [inhibitor, partial curve]
CCOC(=O)C(NC(C)=O)C(OC(C)=O)c1cccc(N(CCO)CCO)c1 (stereo not given) | inactive: 28.4% | –
Cn1c(=O)[nH]c(=O)c2c1nc(SCC(=O)O)n2Cc1ccccc1 | inactive: 13.3% | –
Cc1cc(C)cc(N(CC(=O)NCCSc2ccccn2)S(=O)(=O)c2ccccc2)c1 | – | inconclusive [inhibitor, partial curve, poor fit]

Compound | activity change, negative = inhibition | Potency
O=C(NC1CCCCC1)C(c1ccccc1)N(C(=O)c1csnn1)C1CC1 (stereo not given) | inactive: 3.84% | –
CC(=O)c1c(C)[nH]c(C(=O)Nc2nc(-c3ccc(-c4ccccc4)cc3)cs2)c1C | – | active: 8.28 µM
COc1ccc(OCc2cc(C(=O)NC3CCOC(C)(C)C3)no2)c2ccccc12 (stereo not given) | – | active: 9.28 µM
CCCCC[C@H]1CN(Cc2ccc(OC)cc2)C(=O)[C@@H]1CC(=O)NCc1ccccc1 | – | inconclusive [inhibitor, single point]
Cc1ccc(C)c(NS(=O)(=O)c2cc(C(=O)Nc3ccccc3-c3ccccc3)ccc2Cl)c1 | – | inconclusive [inhibitor, single point]
CCn1nc(C)cc1C(=O)Sc1ccc(Cl)cc1Cl | inactive: 12.5% | –
Cc1ccc(N2C(=O)N(CC(=O)NCc3ccccc3Cl)C(=O)C2C)cc1 (stereo not given) | – | active: 10.4 µM
CC(=O)/C(=N\Nc1ccc(C)cc1)N1CCOCC1 | – | inconclusive [inhibitor, single point]
O=[N+]([O-])c1cc(/C=N/N2CCCCC2)ccc1Cl | inactive: 51% | –
COc1ccc(/C=N/N=C2\SCC(=O)N2c2c(C)n(C)n(-c3ccccc3)c2=O)cc1OC | – | active: 13.1 µM
O=C(c1ccco1)N1CCN(c2ncnc3c2[nH]c2ccc(Br)cc23)CC1 | – | active: 9.28 µM
Cc1cc(NCC2CCCO2)n2c(nc3ccccc32)c1C#N (stereo not given) | – | inconclusive [inhibitor, single point]
O=C(N/N=C/C=C/c1ccc(Br)cc1)C(O)c1ccccc1 (stereo not given) | inactive: -0.927% | –
O=C(NCCCN1CCOCC1)c1ccc2c(=O)n(Cc3ccc(Cl)cc3)c(=S)[nH]c2c1 | – | inconclusive [inhibitor, single point]
COc1cc(C(=O)OCC(=O)N2c3ccccc3NC(=O)C2(C)C)ccc1OCC(C)C | – | inconclusive [inhibitor, partial curve, poor fit]
N#Cc1ccccc1S(=O)(=O)N1CCN(c2cnccn2)CC1 | inactive: 0% | –
COc1cc(/C=C/C(=O)OCC(=O)NCC(=O)Nc2cccc(C)c2C)ccc1OC(F)F | – | inconclusive [inhibitor, single point]
CCCCCCCCOC(=O)c1c(CSC(=N)N)n(C)c2cc(Br)c(OC(C)=O)cc12 | – | inconclusive [inhibitor, single point]
COc1ccc(C2/C=C\CN(C(=O)C3CCCC3)[C@H](Cc3ccccc3)C(=O)N2Cc2ccc(F)cc2)cc1 (stereo not given in full) | – | active: 8.28 µM
CC(C)CN(C(=O)CN1CCc2ccccc21)c1c(N)n(CC(C)C)c(=O)[nH]c1=O | inactive: -20.3% | –
CCC(C)c1ccccc1N1CC(C(=O)N(C)CC(=O)Nc2cccc(F)c2)CC1=O (stereo not given) | – | inconclusive [inhibitor, single point]
Nc1nc(-c2ccc(-n3nncc3-c3ccco3)cc2)cs1 | – | inconclusive [inhibitor, single point]
